53 compounds from ChEMBL document CHEMBL4888484, “Replenishing the malaria drug discovery pipeline: Screening and hit evaluation of the MMV Hit Generation Library 1 (HGL1) against asexual blood stage Plasmodium falciparum ,using a nano luciferase reporter read-out” (2022) can be followed below.

The % Inhibition is the relative decrease from the control value, in per cent.

Screen size: about 150,000 compounds; about 540 (0.36%) showed an effect of 50% or more. This is one part of the list.

This assay has as its system Plasmodium falciparum. Description: Primary screen in NF54 nanoGlo assay, in single point, at 2uM, 72h; a lower Z score goes with more inhibition. In kind it is functional, Erythrocyte. Conditions: timepoint 72 hour.
Regarding `CCc1ccc(-c2n[nH]c(=O)c3c2CCCC3)cc1S(=O)(=O)N1CCCCCC1`, the “% Inhibition” value is -7% and the Z score was 0.83.

For `CN(C)c1nc(N[C@H]2CCS(=O)(=O)C2)ncc1F`, the “% Inhibition” value is -3% and the Z score is 0.33.

Take `CN(Cc1nncn1C)C(=O)CCCc1cn[nH]c1`: the “% Inhibition” value is listed as -9% and the Z score was 1.28.

Turning to `CCn1ccc(C(=O)N[C@@H](C)c2nc(C(C)C)no2)cc1=O`, the “% Inhibition” value was 1% and the Z score is recorded as -0.13.

With `Cc1sc(C(=O)O)cc1S(=O)(=O)N1CCN(c2cc(C3CC3)n[nH]2)CC1`, the “% Inhibition” value is -15% and the Z score came out at 1.88.

`CC(C)n1nccc1C(=O)N1CCOC[C@H]1c1ncn(CC(F)(F)F)n1`: the “% Inhibition” value is -9% and the Z score turned out to be 1.08.

For `Cc1cc(NC(=O)COc2ccccc2)nn1-c1ccc(Cl)cc1`, the “% Inhibition” value is given as -3% and the Z score was determined as 0.32.

Consider `O=C(CCC1CCCC1)Nc1cccc(C(=O)O)c1`, for which the “% Inhibition” value was -3% and the Z score amounted to 0.63.

On to `CCN(C)c1ccccc1NCc1cccnc1C`, for which the “% Inhibition” value is on record as -4% and the Z score was determined as 0.38.

Consider `Cc1ccc(S(=O)(=O)N2c3ccccc3N(C(=O)c3ccccc3)[C@@H]2c2ccc(N(C)C)cc2)cc1`, for which the “% Inhibition” value is 30% and the Z score is given as -3.35.

Regarding `CCc1cc(C(=O)NCc2cn(C)nc2C)c2c(C3CC3)nn(-c3ccc(F)cc3)c2n1`, the “% Inhibition” value came out at 36% and the Z score is reported as -4.89.

In the case of `c1ccc2c(O[C@H]3CCOC3)nccc2c1`, the “% Inhibition” value is recorded as -3% and the Z score was determined as 0.57.

For the compound `O=C(CCn1cncn1)N1CCCCCCC1`, the “% Inhibition” value is on record as -2% and the Z score is reported as 0.23.

For the compound `O=S(=O)(c1ccccc1)N1CC(n2cnnc2[C@@H]2CCCO2)C1`, the “% Inhibition” value is -4% and the Z score stood at 0.61.

On to `Cc1ccc2nc(C(=O)Nc3ccc(OC(F)(F)F)cc3)cc(N3CCCCC3)c2c1`, for which the “% Inhibition” value is recorded as -11% and the Z score is given as 1.35.

Regarding `CCCNC(=O)N(CCN1CCOCC1)CC(=O)N1N=C(c2cccc(OC)c2)C[C@H]1c1ccc2c(c1)OCO2`, the “% Inhibition” value was -14% and the Z score was 2.23.

Turning to `Cc1ccc(S(=O)(=O)NC[C@H]2CC(=O)N(Cc3ccc(F)cc3)C2)c(C)c1`, the “% Inhibition” value is -12% and the Z score is 1.4.

Turning to `CCOC1CC(CO)(NC(=O)Cc2c(C)nn(C)c2C)C1(C)C` (stereo unspecified), the “% Inhibition” value is -8% and the Z score turned out to be 1.

As for `O=S1(=O)CC2Nc3ccccc3NC2C1` (stereo unspecified), the “% Inhibition” value was -9% and the Z score was 1.14.

In the case of `O=C(O)CNc1ccccc1C(=O)NC[C@@H]1C[C@@H]2C=C[C@@H]1C21CC1`, the “% Inhibition” value was found to be 6% and the Z score is recorded as -0.89.

Regarding `Cc1n[nH]c(C)c1S(=O)(=O)N1CCCN(C(=O)COc2ccccc2)CC1`, the “% Inhibition” value is -6% and the Z score worked out at 1.17.

In the case of `O=C(c1ccoc1)N1CCC[C@H](c2nnc3n2CCN(C2CCCC2)C3)C1`, the “% Inhibition” value was -7% and the Z score is listed as 1.4.

As to `CC(=O)Nc1ccc(Oc2ccc(-c3noc(-c4cccc(NC(C)=O)c4C)n3)cc2)cc1`, the “% Inhibition” value is given as -6% and the Z score came to 0.99.

Consider `OC1(CN2CCc3ccccc3C2)CCCC1`, for which the “% Inhibition” value is -19% and the Z score is 3.54.

As to `Cc1cccc(-n2nc(CC(N)=O)nc2[C@H]2CCOC2)n1`, the “% Inhibition” value is recorded as -1% and the Z score worked out at 0.14.

As for `CN1C[C@@H]2CN(C(=O)c3cc(O)c4ccccc4c3)C[C@@H]2C1`, the “% Inhibition” value turned out to be 36% and the Z score is recorded as -3.68.

For `CC(C)c1nc(CC(=O)N2CCC[C@H]2c2ccncc2)cs1`, the “% Inhibition” value was 0% and the Z score is on record as -0.04.

For `C[C@@H](Cc1nc(-c2nccn2C)cs1)n1cc(Cl)cn1`, the “% Inhibition” value is on record as -2% and the Z score came out at 0.26.

Consider `COc1ccc(-c2cc(C(F)F)nc(N(C)Cc3c(C)nn(C)c3C)n2)cc1OC`, for which the “% Inhibition” value is listed as 28% and the Z score is -3.15.

Consider `Cc1cccn2cc(C(=O)N[C@H](c3cnn(C)c3)C(F)(F)F)cc12`, for which the “% Inhibition” value is recorded as 5% and the Z score is on record as -0.85.

As for `CN1CCN(C(=O)c2cc(O)ccn2)Cc2cccnc21`, the “% Inhibition” value is recorded as 4% and the Z score is reported as -0.69.

As to `COc1cccc(CN2CCC[C@@](O)(CNC3Cc4ccccc4C3)C2=O)c1`, the “% Inhibition” value was -19% and the Z score was found to be 1.66.

As for `CN(Cc1cc(C#N)cs1)C(=O)c1ccn(CC(F)F)n1`, the “% Inhibition” value is listed as -6% and the Z score amounted to 0.96.

On to `Cc1noc(C)c1CN(C)C1CC(OC(C)(C)C)C1` (stereo unspecified), for which the “% Inhibition” value is -5% and the Z score amounted to 0.66.

Consider `OCc1ccc(NCc2nccn2C2CC2)nc1`, for which the “% Inhibition” value stood at 1% and the Z score is reported as -0.13.

With `CC1(C)C[C@H](CNC(=O)c2cc3n(n2)CCCC3=O)C(C)(C)O1`, the “% Inhibition” value is given as -11% and the Z score is on record as 2.12.

Take `CCOC(=O)Cc1c(C)nc2ncnn2c1N1CC[C@H]2CCCC[C@@H]2C1`: the “% Inhibition” value is -9% and the Z score is reported as 1.25.

As for `Cn1c(N2CCc3sccc3C2)c(C#N)c(=O)n(C)c1=O`, the “% Inhibition” value is 7% and the Z score is given as -0.88.

In the case of `CCOc1ccc(S(=O)(=O)N(C)Cc2ccccc2)cc1-c1nc(C)no1`, the “% Inhibition” value is on record as 0% and the Z score stood at 0.04.

On to `CCCNS(=O)(=O)c1ccc(-c2cc(C(F)(F)F)on2)o1`, for which the “% Inhibition” value is listed as -11% and the Z score came to 1.91.

For `COc1ccc(OC)c(CNC(=O)CCc2nnc3c4cc(-c5cc(C)ccc5C)nn4ccn23)c1`, the “% Inhibition” value is given as -5% and the Z score is 0.77.

With `COc1ccc([C@H](CO)N(C)Cc2cn(C)c(=O)n(C)c2=O)cc1`, the “% Inhibition” value is recorded as -8% and the Z score is given as 1.07.

As for `Cc1cc(C)c2c(c1)C(=O)[C@H](c1cc(O)c3ccccc3n1)C2=O`, the “% Inhibition” value is -12% and the Z score is listed as 1.92.

`CN(c1nc2c(c(N3CCOCC3)n1)CN(C(=O)Cc1ccccc1)CC2)C1CCCCC1`: the “% Inhibition” value is recorded as -5% and the Z score is recorded as 0.75.

Take `O=C(O)C1CN(C(=O)NC(CCc2ccccc2)C(F)(F)F)CCO1` (stereo unspecified): the “% Inhibition” value was -14% and the Z score stood at 1.53.

As for `CC(C)OCc1cc(C(=O)N2CC[C@H](N)C(C)(C)C2)ccc1F`, the “% Inhibition” value was -11% and the Z score is given as 1.24.

As to `c1cncc(CN2CCc3[nH]cnc3[C@H]2c2cnc(-c3ccco3)nc2)c1`, the “% Inhibition” value is recorded as -2% and the Z score is listed as 0.39.

Turning to `COc1ccccc1CCN(C)c1cnccn1`, the “% Inhibition” value is listed as -5% and the Z score came to 0.74.

In the case of `CCc1ccccc1OC(C(=O)N1CCCC2(CNC(=O)C2)C1)c1ccccc1` (stereo unspecified), the “% Inhibition” value is -3% and the Z score is 0.33.

Take `Cc1ccc(C#N)c(NCCCc2nnc3ccccn23)n1`: the “% Inhibition” value is listed as -10% and the Z score was 1.21.

For the compound `Cc1nc[nH]c1CN(C)Cc1nc(CC(C)C)no1`, the “% Inhibition” value is listed as -15% and the Z score was 2.98.

Take `Cc1ccnc(NCCNc2cc([C@H]3C[C@@H](O)C3)nc(N)n2)c1`: the “% Inhibition” value was -5% and the Z score was determined as 0.79.

As to `COc1ccc(C)cc1NC(=O)N(C)Cc1nc2cc(C(=O)NC(C)C)ccc2n1C`, the “% Inhibition” value is -5% and the Z score worked out at 0.56.
